The source of these data is ChEMBL document CHEMBL1157539, “Thousands of chemical starting points for antimalarial lead identification” (Nature, 2010).

Each structure is given as a SMILES string. Whole data set: some 13,000 compounds, median “IFI” near 4, cut for the highest 2% near 17. This is one part of the list.

A short description of the assay: GSK_TCMDC: Inhibition Frequency Index (IFI). The number of non-kinase HTS assays where a compound showed > 50 % inhibition, expressed as a percentage of the number of such assays in which the compound was tested (-0 is zero). It is filed as functional.
`CCCCCCOc1ccc(C(=O)N[C@H]2CCN(CCCCCNC(=O)/C=C/c3ccc(Cl)c(Cl)c3)C2)cc1` had an IFI of 4.58%.

Regarding `O=C(Nc1cccc(CN2CCCN(Cc3ccc(O)cc3)CC2)c1)c1ccc(-c2ccccc2)cc1`, the IFI was 9.46%.

Turning to `O=C(Nc1ccc(Cl)cc1)c1cccc(S(=O)(=O)NC2CCN(CC3CCCCC3)CC2)c1`, the IFI was found to be 8.74%.

`Nc1cc(/C=C/c2ccc([N+](=O)[O-])s2)nc2ccccc12`: the IFI is 19.2%.

Regarding `CCC(C)NCC(O)(c1ccc(Cl)cc1)c1ccc(Cl)cc1` (centres undefined), the IFI came out at 2.78%.

Take `Clc1ccc(CNCCCCCCNCc2ccc(Cl)cc2)cc1`: the IFI came to 11.3%.

`CN(C)CCC(O)C=C(c1ccc(Cl)cc1)c1ccc(Cl)cc1` (centres undefined) displayed an IFI of 4.69%.

Regarding `Cc1ccc2ccncc2c1N`, the IFI is 5.93%.

In turn, `O=C(NCCCCN1CCCC2c3cccc(O)c3CCC21)c1ccc(-c2ccccc2)cc1` (centres undefined) had an IFI of 4.48%.

The molecule `O=C(Nc1cccc(-c2cccc(-c3nc4ccccc4[nH]3)c2)c1)c1cccnc1` showed an IFI of 7.34%.

With `C=CCOc1ccc(CNC2CCN(Cc3ccccc3)CC2)cc1Br`, the IFI was 5.88%.

For `O=C(NCc1cccc(F)c1)Nc1ccc(-c2cccc(-c3nc4cc(F)ccc4[nH]3)c2)cc1`, the IFI stood at 4.95%.

`O=C(Nc1cccc(F)c1)NC1CCN(CCCCCNC(=O)C2CC2c2ccc(Cl)c(Cl)c2)CC1` (centres undefined): the IFI amounted to 11.5%.

As for `CCOC(=O)C1=C(C)NC(Cn2ccnc2)=C(C(=O)OCC)C1c1ccc(C(C)(C)C)cc1` (centres undefined), the IFI was 0.71%.

Take `c1ccc(CN2CCCN(c3ccc4c(c3)CCN(Cc3ccc(-c5ncc[nH]5)cc3)CC4)CC2)cc1`: the IFI worked out at 2.54%.

`O=C(COc1ccc(Cl)c(Cl)c1)NCCCCCN1CCCN(C(=O)Nc2ccc(Cl)c(Cl)c2)CC1`: the IFI stood at 14.9%.

`Clc1ccc(-c2ccc(C=NNc3nc(=Nc4ccccc4)[nH]c(=Nc4ccccc4)[nH]3)o2)cc1Cl` had an IFI of 1.56%.

The molecule `Oc1ccc2ccccc2c1CNCC1CCCCC1` had an IFI of 3.62%.

Consider `CCOC(=O)c1ccc(NC(=O)Nc2cccc(-c3ccc(-c4nc5ccccc5[nH]4)cc3)c2)cc1`, for which the IFI came out at 6%.

`Cc1cc(Nc2cccc(C#N)c2)nc(Nc2ccccc2C)n1` gave an IFI of 3.17%.

`CCCNCc1ccc(-c2ccc(CN(C(=O)c3nn(-c4ccccc4)nc3C)C3CC3)cc2)nc1` returned an IFI of 5.15%.

Regarding `OCCN1CCN(c2ccc(Nc3ccnc4cc5ccccc5cc34)cc2)CC1`, the IFI came out at 7.38%.

Molecule `CN(CCN(C)C(=O)NCc1ccccc1)C(=O)NCc1ccccc1` registered an IFI of -0%.

Turning to `COc1cc(C(=O)NC2CCN(Cc3ccccc3)CC2)ccc1-c1nc2c(Cl)cc(C(F)(F)F)cc2[nH]1`, the IFI came out at 0.75%.

With `CC(C)C[C@@H](CNC[C@H](CC(C)C)NC(=O)OC(C)(C)C)NC(=O)OC(C)(C)C`, the IFI turned out to be 2.42%.

For `N=C(N)Nc1ccc(Cc2ccc(NC(=N)N)cc2)cc1`, the IFI stood at 0.71%.

The molecule `CCN1CCN(c2cc(C)c3cc(NC(=O)c4cccc(OC)c4)ccc3n2)CC1` registered an IFI of 1.34%.

In turn, `Cn1cncc1C(=O)Nc1cccc(-c2cccc(-c3nc4ccccc4[nH]3)c2)c1` gave an IFI of 1.79%.

For the molecule `Cc1ccc(NC(=O)NC2CCN(c3ccnc4ccccc34)C2)cc1` (centres undefined), the IFI was 1.54%.

Consider `CCCC1N=C(N)N=C(N)N1c1ccc(OC)cc1` (centres undefined), for which the IFI was -0%.

`CN(C)CCN(C)Cc1ccc(-c2ccc3c(Nc4ccc(Oc5ccccn5)cc4)ccnc3c2)o1` gave an IFI of 4.44%.

Molecule `Cc1ccccc1/N=C1\NC(=S)N(c2cccc(C(F)(F)F)c2)C12CCC(C(C)(C)C)CC2` (centres undefined) had an IFI of 0%.

For the molecule `COc1ccc(-c2ccc(NC(=O)c3cccc(C#N)c3)cc2)cc1CN1CCCN(C)CC1`, the IFI is 4.95%.

In turn, `Fc1ccc2[nH]c(-c3cccc(-c4cccc(CN5CCN(c6cnccn6)CC5)c4)c3)nc2c1` displayed an IFI of 3.92%.

`CCn1c(CN2CCN(Cc3ccccc3)CC2)nc2cc(NC(=O)c3cccs3)ccc21` came in with an IFI of 3.45%.

Take `Fc1ccc(NC(=S)NCCc2ccccc2)cc1`: the IFI was found to be 2.19%.

Consider `O=C(c1ccc(Br)o1)N1N=C(c2cccs2)CC1c1ccc(Br)cc1` (centres undefined), for which the IFI came to 1.41%.

The molecule `O=C(Nc1ccc(Oc2ccc(OC(F)(F)F)cc2)cc1)c1ccco1` had an IFI of 5.22%.

In turn, `COc1ccc2nccc([C@@H](O)CN3CCC(CO)(NCc4cc5ccccc5o4)CC3)c2c1` yielded an IFI of 4.44%.

On to `CCOC(=O)c1ccc(Nc2cc(Nc3ccc(C(=O)OCC)cc3)nc(C)n2)cc1`, for which the IFI is 0.75%.

Molecule `Cc1ccc(C(=O)NCC2CCN(c3ccc(C(F)(F)F)cc3NC(=O)c3ccco3)CC2)cn1` came in with an IFI of 3.03%.

With `COc1cc2nc(NCc3cccc(CNC(=O)c4ccc(-c5ccc(C(C)=O)cc5)cc4)c3)nc(N)c2cc1OC`, the IFI stood at 8.7%.

Take `N=c1ccn(CC(=NO)c2ccc(Cl)c(Cl)c2)cc1`: the IFI was 3.68%.

`CN(C)Cc1cccc(-c2ccc3ccnc(N)c3c2)c1`: the IFI stood at 4.42%.

For `c1ccc(OCCCCN2CCCCC2)cc1`, the IFI is 1.67%.

`CC(C)(C)OC(=O)N(Cc1cc(-n2nnnc2C(F)(F)F)ccc1O)[C@H]1CCCN(C(=O)OC(C)(C)C)[C@H]1c1ccccc1` displayed an IFI of 5.11%.

On to `O=C1OC2(CN1CC1CCN(Cc3ccc(O)c(Cl)c3)CC1)c1ccccc1-c1ccccc12`, for which the IFI stood at 5.47%.

In turn, `CCCNC(=O)C1CCN(C(c2ccc(Cl)cc2)c2ccc(Cl)cc2)CC1` came in with an IFI of 4.05%.

In turn, `O=C(Nc1ccc(S(=O)(=O)N2CCCC2)cc1)c1cc(-c2cccnc2)nc2ccc(Cl)cc12` displayed an IFI of 0%.

In turn, `CCN(CC)CCCN(Cc1ccc(-c2ccc(C(F)(F)F)cc2)cc1)C(=O)Cn1c(SCc2cccc(F)c2F)cc(=O)c2ccccc21` yielded an IFI of 7.14%.

`O=C(Nc1ccc(Cl)cc1C(=O)Nc1cccc(F)c1)c1ccc([N+](=O)[O-])cc1`: the IFI is 1.43%.

Molecule `CCN1CCN(c2cc(C)c3cc(NC(=O)c4ccc(N(CC)CC)cc4)ccc3n2)CC1` registered an IFI of 5.26%.

Turning to `COc1ccnc(NCCCNCc2cn(S(=O)(=O)c3ccccc3)c3ccccc23)c1`, the IFI amounted to 5.3%.

As for `O=C(/C=C/c1ccc(C(F)(F)F)cc1)NCCCCCN1CCCN(C(=O)Nc2ccc(Cl)c(Cl)c2)CC1`, the IFI came to 20.4%.

With `Oc1cccc(-c2nc(-c3cccc(I)c3)c(-c3ccc(-c4nc(-c5cccc(O)c5)[nH]c4-c4cccc(I)c4)cc3)[nH]2)c1`, the IFI was determined as 6.12%.

Consider `CCC/C=C/c1c(CNCCCNc2cc(=O)c3ccccc3[nH]2)sc(CC)c1Br`, for which the IFI was determined as 7.86%.

The molecule `Cc1cccc2nc(-c3cccc(-c4cccc(CNCc5ccccc5)c4)c3)[nH]c12` yielded an IFI of 5.66%.

On to `CN1CCN(c2cc(-c3ccncc3)nc(-c3cccnc3)n2)CC1`, for which the IFI was found to be 0%.

`COc1ccccc1N1CCN(CCCCN(C(=O)Nc2cccc(Cl)c2)C(=O)Nc2cccc(Cl)c2)CC1` came in with an IFI of 1.48%.

As for `CN(CCN1CCCC1)c1nc2cc(-n3cnc4cc(-c5ccc(Cl)cc5)sc4c3=O)ccc2[nH]1`, the IFI was found to be 12.4%.

Regarding `COc1ccc2nc3cc(Cl)ccc3c(NCc3ccccc3)c2c1`, the IFI is -0%.

For the molecule `CN(Cc1ccc(C#N)cc1)C1CCN(c2cc(NC(=O)c3cccc(F)c3)ccn2)CC1`, the IFI was -0%.

The molecule `COc1ccccc1C1CCN(C2CCC(NC(=O)/C=C/c3ccc(F)c(F)c3)CC2)CC1` (centres undefined) came in with an IFI of 6.67%.

Regarding `CCn1c(=O)c(C(=O)Nc2cc(Cl)c(OC)cc2OC)nc2ccccc21`, the IFI was determined as 0%.

Consider `O=C(Nc1cccc(-c2cccc(-c3nc4cc(C(F)(F)F)ccc4[nH]3)c2)c1)c1cccnc1Cl`, for which the IFI is 9.09%.

In the case of `CCCNCc1ccc(-c2ccc(CN(C(=O)c3nn(-c4ccccc4)nc3C)C3CCOCC3)cc2)nc1`, the IFI was 4.51%.

For `CCNc1cc(C(=O)N[C@@H](Cc2ccccc2)[C@H](O)CN[C@H](C)c2ccccc2)cc(N2CCCC2=O)c1`, the IFI was 3.65%.

Regarding `CC(C)(C)c1ccc(C(=O)N2CCC3(CC2)C(=O)N(CC(=O)NCC2CCCO2)CN3c2ccccc2)cc1` (centres undefined), the IFI stood at 1.67%.

`FC(F)(F)c1ccc2[nH]ccc(=NN=Cc3ccc(Cl)cc3)c2c1` had an IFI of -0%.

On to `CC1CCC(NCc2c(O)ccc3ccccc23)CC1` (centres undefined), for which the IFI turned out to be 3.68%.

Regarding `O=C(Nc1ccc(Cl)cc1)N1CCN(C2CCCCC2)CC1`, the IFI turned out to be 0.75%.

Take `CC(=O)C1C(=O)CCC1=O`: the IFI is 0%.

Turning to `CCCCCNc1nc(Nc2ccccc2C)nc2ccccc12`, the IFI is 0.74%.

`CCOc1cc(Cc2cnc(N)nc2N)cc(OCC)c1OCC` displayed an IFI of -0%.

In turn, `Cc1cccc2nc(-c3ccc(-c4cccc(NC(=O)C(C)CN5CCN(C)CC5)c4)s3)[nH]c12` (centres undefined) showed an IFI of 1.83%.

In turn, `COc1ccc(-c2ccc(NC(=O)c3cccc(C#N)c3)cc2)cc1CN(C)C` yielded an IFI of 4%.

`O=C(NCCCCN1CCC(c2ccc3c(c2OCCO)CCCC3)CC1)c1sc(-c2ccc(C(F)(F)F)cc2)nc1CO` registered an IFI of 5.17%.

`COc1ccc(CNCCCCCCNCc2ccc(OC)c3ccccc23)c2ccccc12` returned an IFI of 8.21%.

The molecule `COc1cc2nc(NCCC(C)C)n3nc(-c4ccccc4)nc3c2cc1OC` yielded an IFI of -0%.

The molecule `CC(C)c1nc(N2CCN(C(=S)NCc3ccccc3)CC2)c(C#N)c2c1COC(C)(C)C2` yielded an IFI of 3.57%.

Consider `COc1ccc(-c2ccc(CNC(=O)c3cccc(C#N)c3)c(F)c2)cc1CN1CCCN(C)CC1`, for which the IFI amounted to 7.59%.

For `CC(Cc1ccc(OCCN2CCN(c3ccc(Cl)cc3)CC2)cc1)NCC(O)c1cccc(C(F)(F)F)c1` (centres undefined), the IFI came out at 18.1%.

`C=CCOC(=O)N1CCC(CNCc2cccc(-c3ccc(-c4nc5cccc(C)c5[nH]4)s3)c2)C1` (centres undefined) displayed an IFI of 3.81%.

On to `Nc1ncnc2cc(-c3cccc(NC(=O)Nc4ccccc4)c3)sc12`, for which the IFI was determined as 2.14%.

The molecule `O=C(Nc1ccsc1C(=O)NC1CCCCC1)c1ccc(F)cc1` displayed an IFI of -0%.

The molecule `Cc1cc(N[C@@H](Cc2ccccc2)C(=O)NCCc2ccccc2)nc(NCCc2ccccc2)n1` displayed an IFI of 15.9%.

`c1cc(CNC2CCN(CC3CCCCC3)CC2)cc(-n2ccnc2)c1` registered an IFI of -0%.

In turn, `COc1ccc(NC(=O)c2c(NC(=O)c3cccs3)sc3c2CCCC3)cc1` gave an IFI of 1.41%.

As for `N#Cc1ccc(-c2ccc(C(=O)NCCCCN3CCC(c4ccc5c(c4OCC(N)=O)CCCC5)CC3)cc2)cc1`, the IFI was 3.54%.

As for `Nc1nccc2ccc(-c3ccc4ncccc4c3)cc12`, the IFI was determined as 7.95%.

Molecule `Cc1nc(N)nc(N)c1-c1ccc(Br)cc1` registered an IFI of 1.52%.

The molecule `O=C(Nc1cccc(-c2csc(NC(=O)c3ccc4ccccc4c3)n2)c1)c1ccc2ccccc2c1` came in with an IFI of 2.13%.

`Cc1c(Cl)ccc2c(C(=O)Nc3ccncc3)cc(-c3cccnc3)nc12` displayed an IFI of 1.52%.

`Cc1nc(C)c(-c2ccc(Oc3ccc(OC(F)(F)F)cc3)cc2)c(OC(=O)c2ccccc2)c1Cl`: the IFI was 0.79%.
